# Where a structure was tested more than once in an assay, its records may differ in their call.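 Note: values are percent growth. 100 is the growth of untreated cells, values between 100 and 0 indicate rising inhibition; between -100 and 0 indicates cell death.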 For part of its entries the source gives two or more results. The list is limited to them. How the source made its calls: active means growth percent below 10; inactive means the rest. The source may hold further records. These are repeated runs of one drug, at the concentration stated with the values; one value stands for one run. Counts like (3×) say how often a value occurs here.
# How the values were obtained:
# OVCAR-4 ovarian = test: NCI-60 one-dose screen, 48 h (100 = growth as untreated, 0 = no growth, -100 = all killed); settings: 2.5 mM
# SK-OV-3 ovarian = test: as above; settings: 2.5 mM
smiles,measurement,setting,value
O=c1[nH]cc(F)c(=O)[nH]1,growth,OVCAR-4 ovarian; runs of 1992,"active: -6.6, -10.2, -40.2, -65, -43.7, -24, 3.51, -14.5, 6.55, 6.74, -50.4, -47.9, -51.8, -22.2, -3.47 (2×), -19.1, 0.441, 3.41, -13.8, -39.6, -39.5, -2, -21.5, -20.7, -10.8, 7.26, -13.7, 1.93, -28, -19.3, -28.4, -3.29, 5.26, 2.95, 9.18, -39.9, -2.41, -59.1, -14.6, 1.94, -32.3, -4.72, -23.5 (2×), -16.8, -4.76, -17.1, -28.5, -2.55, -30.2, -20.3, -38.1, -31.7, -49.6, -33.4, -30.7, 2.56, -21.4, -19.6, 3.57, -2.54, -6.29, -38, -33.9, -8.69, 3.87, -32.5, -53.7, -13.5, 2.15, -1.06% and inactive: 26.4, 13.1, 19.8, 27.3 (2×), 13.2, 10.3, 14.8, 13.3, 25.4, 31.4, 11.8, 27, 19, 15.8, 25.3, 95.8, 27.5 (2×), 22.1 (2×), 11, 14.2, 10.1, 12.2, 20.8, 13.5, 16.6, 29, 24, 33, 10.9, 11.1, 16.8, 31, 18.4, 41.2%"
same,growth,OVCAR-4 ovarian; runs of 1993,"inactive: 38, 37.7, 21.7, 23.1, 22.9, 44.8, 39.6, 18.3, 19.8, 11.4, 15.8, 22.5, 41.2, 34, 13.1, 31.8, 102, 92.1, 19.7, 21.5, 18.5, 65.9, 16.4, 24.7% and active: 3.1, -14.2, -47.1 (2×), -38.8, -13.3, -30.8, 6.19, -43, -31.4, -12.7, -47.9, -13.2, -17.5, 5.57, -21.9, -1.53, -2.69, -22.9, -26.6, -9.75, -3.62, -17.7%"
same,growth,OVCAR-4 ovarian; runs of 1994,"inactive: 36, 82.5, 23.2, 44.6, 14.3, 27.4, 31.1, 10.5, 13, 20.6, 12, 12.5, 36.3, 57, 16.7, 17.1, 21.5% and active: -7.92, -33, -18.2, 1.1, -18.6, -7.46, -10.3, 1.99, -9.49, 3.64, -30.9, -27.7, -16.2%"
same,growth,OVCAR-4 ovarian; runs of 1995,"inactive: 11.3, 27.8, 22.3, 13.4, 14.7, 26.7, 28, 34.4, 27.2, 20.7% and active: -18.6, -16.3, -1.02, -9.96, -11.4, 9.83, -21.6, -18.2, 6.32, 0.884, -4.24, -17.3, -28.2, 0.893, -9.23, -15.8, 6.19, 2.06, -12.9, -8.5, 7.23, -5.08, -14.1, -15.6, 2.79, 8.79, -0.79, -7%"
same,growth,OVCAR-4 ovarian; runs of 1996,"active: -12.2, -16.1, -15, 2.79, -0.287, 9.44, -36, 9.72, -0.156, 1.1, 8.98, -10.4, -34.4, -7.1, -2.77, 4.06, -11, -22.7, -6.31, -8.44, -0.985, -11.4, -2.57, -0.645, -15.2, -5.78, -14.8, -14, -32, -41.8, -7.53, -7.21, -1.53, -15.9% and inactive: 11.4, 32.1, 28.5, 14.7, 19.2, 47.5, 24.3, 25.3, 39.1, 23, 46.1, 31.3, 32.5, 20.2, 21.5, 19.9, 15.3, 33.3, 10.4, 50.1, 40.3, 12.4%"
same,growth,OVCAR-4 ovarian; runs of 1997,"inactive: 16.7 (2×), 42.3, 12.5, 12.2, 10.8, 18.3, 24.8, 26.2, 23.9, 58.7, 11.7, 25.2, 25.5, 14.4, 22.2, 23.2, 12.9, 27.9% and active: 0.832, 8.92, -1.37, 3.9, -5.05, -6.46, -10.3, -32.7, 7.99, -9.82, -5.75, -6.87, -7.54, 2.52, 7.41, 4.92, -14.6, -0.351, -8.84, -11.2%"
same,growth,OVCAR-4 ovarian; runs of 1998,"active: -1.08, -19.5, -21.6, -25, -17.8, -24.3, 5.99, -18.8, -15, 7.17, -2.59, 1.76, -32.9, -25.8, -16.6, -8.83% and inactive: 19.3, 16.1, 31.6, 27.1, 37.1, 26.7, 36.9, 62.6, 36.6%"
same,growth,OVCAR-4 ovarian; runs of 1999,"inactive: 52.2%, 49.9%, 24.1% and active: -56.3, -55.1, -21.3, -19.4, 1.87, 3.55, 0.714, 7.84, 1.25, 4.75, -58.6, -100, -6.12%"
same,growth,OVCAR-4 ovarian; runs of 2000,"active: 1.97, -11.3, -7.81, -33.6%"
same,growth,SK-OV-3 ovarian; runs of 1991,"active: 1.22, -7.87, -51, -19.5, -2.39, -1.51, -50, -34.5, -0.61, -1.91% and inactive: 35.9, 39.2, 18.1, 31.9, 19.7, 40%"
same,growth,SK-OV-3 ovarian; runs of 1992,"inactive: 17.5, 57.5, 16 (2×), 18.1, 34.5, 33.3, 33.4, 18.7, 28.9, 23, 37.9, 79.8, 11.7, 13.9, 28.8, 31.5, 31.8 (2×), 18.2, 26.5, 20.4, 12.9, 16.1, 10.9, 25.2, 10.4, 18.6, 35.1, 16.7 (2×), 10, 26.4, 18.3, 16.6, 14.3, 17.6, 10.8, 17, 24.1, 51.8, 35.8, 10.7, 29.8, 11.2, 16.2, 47.1, 12.1, 15.4, 20.6, 26.6, 10.3, 22.8, 28.1, 14% and active: 6.06, -1.44, 7.29, 9.45, 9.77, -24, 5, -14.2, -19.7, -0.988, 1.62, 6.84, 9.42, 9.66, 4.9 (2×), 3.65, -23.9, -1.73, -5.57, 1.82, 0.759, -17.9, -26.5, -21.3 (2×), 0.573, 0.952, -45, -31.2, -11.7 (2×), 7.71, 3.94, -3.76, -6.08, 8.71, 0.25, 0.521, -13.7, -5.09, -13.6, -20.2, -14.6, -29.8, -69, -5.38, 5.43, 9.91, 8.65, -3.51, -4.73, -30.2, -23.5, -32, 7.15, 1.91, -43.1, -10.4, -69.5, 1.72, 8.4, -54.1, -22.4%"
same,growth,SK-OV-3 ovarian; runs of 1993,"active: 6, -12.6, -8.36, -1.59, 5.64, 5.03, -12, 8.76, 5.95% and inactive: 22.1, 37.3, 30.4, 47.5, 31.8, 59.9, 39.2, 41.8, 16.7, 38.2, 37.4, 17.6, 21.7, 21.9, 24.6, 15.9, 14.6, 22.9, 14.9, 13.1, 26.7, 29.1, 25, 98.8, 46.7, 93.4, 58.4, 18.7, 18.3, 34.2, 38.5, 29.9, 10.7%"
same,growth,SK-OV-3 ovarian; runs of 1994,"inactive: 21.7, 30, 46.3, 22.9, 25.4, 22, 35.5, 22.6, 21.2, 27.4, 13.1, 31.7, 22.5, 16.5 (2×), 28.9, 27.2, 25.7, 20.7, 24.7, 38.1, 13.8, 28.3% and active: -9.37, 3.65, 5.29, -0.576, -31.5, -4.79, -29.8%"
same,growth,SK-OV-3 ovarian; runs of 1995,"inactive: 43.7, 25, 35, 22.7, 24.7, 34.6, 36.6, 25.8, 30.5, 26.5, 14.9, 60.6, 26.6, 29.6, 34.3, 81% and active: -15.3, -14.4, -0.136, 3.23, -0.355, -31.7, -18.5, -7.47, -24.5, 4.62%"
same,growth,SK-OV-3 ovarian; runs of 1996,"inactive: 33, 24.4, 47.2, 37.8, 48.2, 72.3, 19.6, 31.2 (2×), 30.7, 35.8, 37.4, 26.6, 35.7, 23, 40.3, 19.4, 31.1, 21.7, 20.6, 21.4, 22.7, 30, 46.6, 24, 29.8, 26.7, 21.8, 44.2, 38.4, 55.3, 56.8, 48.6, 43.2, 53, 50.8, 30.3, 56.3, 62.7 (2×), 43.6, 38.5, 24.9, 47.3, 43.1, 74.5, 58.1, 32.7, 30.6, 57.2, 20% and active: -3.82, -0.327, -1.2, 9.16, 0.871, 8.43, -38.2%"

# From PubChem BioAssay (NCI)
